Test results taken from PubChem BioAssay AID504332 (National Center for Advancing Translational Sciences (NCATS), 2011).
The campaign covered roughly 350,000 compounds. About 31,000 (8.9%) were called active. This list was built around the results that the source calls inconclusive (neither active nor inactive); the mix of calls is not that of the screen. Calls come from the whole dose curve; as a rule, active = well fitted inhibition curve with a large enough effect; inconclusive = small, poorly fitted or top-dose-only effect; inactive = no such curve, though single readings can be large or run the other way. Where the call is inconclusive, the potency comes from a doubtful curve fit.

These compounds were tested against Histone-lysine N-methyltransferase EHMT2 (Homo sapiens) (UniProt Q96KQ7) (assay: qHTS Assay for Inhibitors of Histone Lysine Methyltransferase G9a). Settings: G9a H3K9 monomethylation, AlphaScreen, 2 h; activity, negative = inhibition: at 59 µM (top of the series) unless noted.
Sequence of UniProt Q96KQ7 (Q96KQ7 whole entry, looked up): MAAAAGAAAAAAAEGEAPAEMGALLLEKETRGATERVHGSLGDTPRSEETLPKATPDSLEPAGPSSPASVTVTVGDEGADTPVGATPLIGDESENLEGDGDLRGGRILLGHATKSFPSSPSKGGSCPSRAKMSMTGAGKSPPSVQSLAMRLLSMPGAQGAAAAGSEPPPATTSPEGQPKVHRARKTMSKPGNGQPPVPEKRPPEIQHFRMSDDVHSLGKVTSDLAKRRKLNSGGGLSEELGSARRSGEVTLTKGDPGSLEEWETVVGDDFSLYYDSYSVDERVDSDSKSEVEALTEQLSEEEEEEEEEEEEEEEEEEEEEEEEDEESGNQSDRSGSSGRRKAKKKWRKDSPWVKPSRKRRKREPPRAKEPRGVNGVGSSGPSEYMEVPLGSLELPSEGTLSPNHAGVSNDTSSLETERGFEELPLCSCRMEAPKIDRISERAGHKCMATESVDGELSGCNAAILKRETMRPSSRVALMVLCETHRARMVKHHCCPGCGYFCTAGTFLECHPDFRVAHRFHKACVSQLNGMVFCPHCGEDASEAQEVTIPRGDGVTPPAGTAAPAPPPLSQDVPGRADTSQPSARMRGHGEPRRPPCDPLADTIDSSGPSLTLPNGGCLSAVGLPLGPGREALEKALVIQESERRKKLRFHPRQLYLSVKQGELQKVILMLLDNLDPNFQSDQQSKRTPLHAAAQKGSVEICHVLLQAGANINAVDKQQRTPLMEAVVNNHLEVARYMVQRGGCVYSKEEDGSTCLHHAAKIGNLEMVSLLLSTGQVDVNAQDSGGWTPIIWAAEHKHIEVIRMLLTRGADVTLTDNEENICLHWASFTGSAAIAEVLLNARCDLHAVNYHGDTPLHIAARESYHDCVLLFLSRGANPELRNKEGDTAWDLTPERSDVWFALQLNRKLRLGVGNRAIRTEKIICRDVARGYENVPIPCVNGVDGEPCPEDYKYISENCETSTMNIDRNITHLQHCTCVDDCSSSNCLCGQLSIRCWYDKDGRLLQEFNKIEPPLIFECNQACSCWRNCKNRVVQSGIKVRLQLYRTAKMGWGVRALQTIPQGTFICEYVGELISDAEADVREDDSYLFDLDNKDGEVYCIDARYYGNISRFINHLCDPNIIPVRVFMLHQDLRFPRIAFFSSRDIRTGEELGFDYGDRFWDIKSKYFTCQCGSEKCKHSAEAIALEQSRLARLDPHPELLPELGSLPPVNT
Method in brief: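 Using a bead-based AlphaScreen, monomethylated H3K9 product from 2 h room-temperature reactions (G9a 20 nM, peptide 500 nM, SAM 20 uM) was detected with 0.5 ug/mL rabbit anti-H3K9me1 antibody.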
% is set by controls: 0 for no effect and ±100 for the full control effect; potency is the fitted concentration of half-maximal effect; tags give direction and shape of the fitted curve.
Note: nearly all actives have a fitted effect of over 75% in size.

Structure (SMILES) | Potency | activity, negative = inhibition
CC(=O)Nc1sc(N)nc1-c1ccccc1 | inconclusive: 89.1 µM [inhibitor, single point] | –
Cc1ccccc1NC(=O)Cc1nc(COC(=O)Cc2ccccc2F)cs1 | – | inactive: 24.8% [at 12.7 µM]
O=[N+]([O-])c1ccc(-c2cn(-c3ccc(Cl)cc3)c(=S)[nH]2)cc1 | inconclusive: 79.4 µM [inhibitor, single point] | –
CC(C)c1cccc(C(C)C)c1NC(=O)CN1C(=O)NC2(CCCC2)C1=O | inconclusive: 89.1 µM [inhibitor, single point] | –
O=C(Cn1ncn2c(cc3cc(F)ccc32)c1=O)NC1CCCCC1 | inconclusive: 35.5 µM [inhibitor, single point] | –
C/C(=C\C(=O)c1c(O)cc(C)oc1=O)N(C)C | inconclusive: 44.7 µM [inhibitor, partial curve, poor fit] | –
COC(=O)c1ccccc1NC(=O)c1cc2ccccn2n1 | inactive | –
NC(N)=Nc1cc2ccccc2c2ccccc12 | inconclusive: 70.8 µM [inhibitor, partial curve, poor fit] | –
COc1ccc(-n2c(SCC(=O)Nc3ccc(C(=O)O)cc3)nnc2-c2ccccc2)cc1OC | inconclusive: 89.1 µM [inhibitor, single point] | –
COc1ccc(/C=C2\SC(=S)N(CC(=O)NC3C=CS(=O)(=O)C3)C2=O)cc1 (centres undefined) | inactive | –
Cn1c(SCC(=O)O)nc2ccccc2c1=O | inconclusive: 89.1 µM [inhibitor, single point] | –
O=C(O)c1ccccc1NS(=O)(=O)c1ccc2ccccc2c1 | – | inactive: 1.57% [at 12.7 µM]
CCOc1ccc(-c2cn(-c3ccc(OC)cc3)c(SC)n2)cc1 | inconclusive: 25.1 µM [inhibitor, single point] | –
CCc1noc(-c2ccc(N3CCC(C)CC3)c([N+](=O)[O-])c2)n1 | inactive | –
CC(C)(C)c1csc(N/N=C/c2cccnc2)n1 | inconclusive: 39.8 µM [inhibitor, partial curve, poor fit] | –
COc1ccc(-n2c(=O)c3c4c(sc3n(CC(=O)Nc3cc(C)[nH]n3)c2=O)CCC4)c(OC)c1 | inconclusive: 89.1 µM [inhibitor, partial curve, poor fit] | –
c1csc(C2Nc3cccc4cccc(c34)N2)c1 | inconclusive: 20 µM [inhibitor, partial curve, poor fit] | –
COC(=O)c1sc(N2C(=O)C(=O)/C(=C(/O)c3ccccc3)C2c2ccco2)nc1C (centres undefined) | active: 35.5 µM | –
Cn1c(SCC(=O)O)nnc1-c1cccc(NC(=O)c2cccc3ccccc23)c1 | active: 31.6 µM | –
